The source gives many values for each of these; only a part stands here.
Assays:
[1] = 100 kPa
[2] = xn = mol fraction of the nth substance listed; settings: 101 kPa

CC[n+]1ccn(C)c1.COS(=O)(=O)[O-]
[1]
Settings	viscosity [mPa·s]
298.15 K	84.3
303.15 K	68.7
308.15 K	56.7
313.15 K	47.6

NC(N)=O + O
[2]
Settings	viscosity [mPa·s]
293.15 K, x1 = 8.99e-05	1.004
293.15 K, x1 = 0.00018	1.003
293.15 K, x1 = 0.0002702	1.003
293.15 K, x1 = 0.000358	1.002
293.15 K, x1 = 0.00054	1.003
293.15 K, x1 = 0.001079	0.9983
293.15 K, x1 = 0.001798	1.004
293.15 K, x1 = 0.004484	1.013
294.75 K, x1 = 0.07068	1.223
298.15 K, x1 = 8.99e-05	0.8957
298.15 K, x1 = 0.00018	0.8933
298.15 K, x1 = 0.0002702	0.8915
298.15 K, x1 = 0.000358	0.8917
298.15 K, x1 = 0.00054	0.893
298.15 K, x1 = 0.001079	0.8924
298.15 K, x1 = 0.001798	0.8951
298.15 K, x1 = 0.004484	0.9018
298.15 K, x1 = 0.02	0.92
298.15 K, x1 = 0.032	0.954
298.15 K, x1 = 0.05	1.007
298.15 K, x1 = 0.07	1.069
298.15 K, x1 = 0.091	1.127
303.15 K, x1 = 8.99e-05	0.797
303.15 K, x1 = 0.00018	0.7974
303.15 K, x1 = 0.0002702	0.7979
303.15 K, x1 = 0.000358	0.7984
303.15 K, x1 = 0.00054	0.8009
303.15 K, x1 = 0.001079	0.7999
303.15 K, x1 = 0.001798	0.8041
303.15 K, x1 = 0.004484	0.8069
303.15 K, x1 = 0.0085	0.872
303.15 K, x1 = 0.0219	0.935
303.15 K, x1 = 0.032	0.766
303.15 K, x1 = 0.0994	0.991
303.15 K, x1 = 0.1318	1.087
308.15 K, x1 = 0.032	0.766
318.15 K, x1 = 0.032	0.647
